# The supplement of paper PMC3334620
# In all, about 33,000 sequences were measured (“E-score (-0.5 to 0.5)”: median about -0.01, highest 2% from about 0.26 on). Some of the results follow.
# Target: Ste12 (UniProt P13574)
# Assay: PBM E-score (8-mer binding enrichment) (E-score (-0.5 to 0.5)); higher = stronger / more preferred TF binding; most listed sequences are background and not binding sites
# Settings: protein concentration: 200 nM; construct: GST-DNA-binding domain
# Summary of the method: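 Detection of bound protein used fluorescent anti-GST, with scans normalised by masliner. The proteins were GST-tagged yeast transcription factors applied at about 100-200 nM to universal all-10-mer Agilent arrays made double-stranded by primer extension. Each ungapped eight-base word, pooled with its reverse complement, was scored with an E-score from the Universal PBM Analysis Suite.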
row,Sequence,PBM E-score
1,AAGCAACC,0.00622
2,AACTGACG,-0.0482
3,CCGTTCGC,-0.216
4,CCTCTGGA,-0.0276
5,ACATAAGG,0.149
6,GCCTGTCA,-0.18
7,ATCGGAAT,0.126
8,AGGAACCG,-0.00564
9,CACGCGAC,-0.183
10,CGCGCATA,-0.00438
11,AGGACGAT,-0.0289
12,GGACGGTA,-0.0987
13,CCCTTGTC,-0.0531
14,GGAGATAA,0.0244
15,ATAGTGCC,-0.0186
16,CCGCACGC,-0.189
17,ACCTTACA,0.0584
18,AAGAGATT,0.161
19,TAAGGCTA,0.0255
20,AAGCAATG,0.0724
21,GCGACGAA,0.00626
22,ACGTAAAA,0.161
23,CCTTTAAA,0.0788
24,CCGAATCC,0.119
25,CCGATGAG,-0.215

row,Sequence,PBM E-score
1,CCATTGCC,0.067
2,GCTCAAGA,-0.195
3,CTGTATTC,0.0934
4,GGTGTGTA,-0.0827
5,AGTCTCCA,-0.292
6,CTCCGCGA,-0.0599
7,CGCTCGCC,0.0662
8,ATCTCACC,-0.00071
9,ACCTTGAC,-0.0554
10,ACATCCTC,0.102
11,CTCTTGCA,-0.0675
12,TAATGGCA,0.203
13,TTGGCAAA,0.136
14,ACCATGAT,-0.123
15,CTAGTCAA,-0.0166
16,CGGCCAAG,-0.0734
17,GGGTAGAC,-0.188
18,TAACCTTA,0.0628
19,AATATACA,0.144
20,GGTGGTGA,0.0764
21,CGTGTTCA,0.0516
22,ACGAACTC,0.0682
23,ATATGTCG,0.0565
24,ATTTAAAC,0.207
25,AGTCACTG,-0.0698

row,Sequence,PBM E-score
1,CTCCTTAA,-0.141
2,GGCTGGAC,-0.182
3,CAGGACGG,-0.112
4,ATCTCAAT,0.0795
5,ACAGTGCT,0.0295
6,ACGCTAAT,-0.0127
7,AGTCTCGG,-0.188
8,ATGGCATA,0.103
9,AGCCCATG,-0.0269
10,CTTATATC,0.0996
11,AGGATAGA,0.0956
12,CCTAATCA,0.209
13,AGATCCCC,-0.016
14,CTCTTAAA,0.187
15,CCTTTGGA,-0.103
16,ATTACTTC,-0.0702
17,CACTCACC,-0.0514
18,AAGGCTCT,-0.138
19,AGTCCCCC,-0.266
20,AGAAGAAT,-0.162
21,ATGTCCCC,0.0783
22,GAGGTGCA,-0.0509
23,AGAGAAAT,0.0896
24,AAACGTGG,0.0452
25,CGTTCCTA,0.00679

row,Sequence,PBM E-score
1,AAATGAAT,0.108
2,AGATAATA,0.137
3,AAAGCGCC,-0.0182
4,ATACTGCA,0.113
5,CGCCACTC,0.123
6,CAGATCAG,0.0568
7,ACTGGATC,0.0684
8,CTATCCAC,-0.0583
9,AGCCCTAA,0.0362
10,ACACACGA,0.0703
11,CGACTATA,0.101
12,ACTTTGGC,-0.154
13,ACTATCGA,-0.0428
14,ATAAAACG,0.37
15,CCGCAGCG,-0.033
16,GAACCGTA,-0.202
17,GCGTAAAC,0.0347
18,CTCGCTGA,0.0712
19,CAAACGGG,0.0663
20,AGGGGTGA,0.0141
21,CGAGCTCC,-0.0186
22,GTTCCTAA,-0.00472
23,CCAACTCA,0.0106
24,ACATTGAC,0.0479
25,GCATGAGA,-0.0163

row,Sequence,PBM E-score
1,CCTCACAC,-0.033
2,ACTACTGC,-0.0446
3,CAAAGGTA,-0.022
4,TGTTCCAA,0.139
5,GGCACAAC,-0.00342
6,AGAACCGA,-0.0635
7,GCGACCAC,-0.0209
8,GACTAGTC,-0.203
9,AGTATACC,-0.00913
10,CAGAACCC,-0.0204
11,CTGCCCTC,-0.211
12,GTACCCAA,0.036
13,CACATCTA,0.0333
14,AATGTCCC,0.159
15,AGACCGGC,-0.191
16,AAGCTGGC,-0.151
17,CAGGGAAA,0.0887
18,AATCCGAA,0.0364
19,GCATTTCA,0.0979
20,GATATGGA,0.235
21,AGGTTCGG,-0.116
22,AGGCGACA,-0.116
23,ATACATTA,0.164
24,ATCCGTGG,-0.107
25,ACTGGCTC,-0.277

row,Sequence,PBM E-score
1,AATCAACG,-0.0774
2,ACGTTCGC,-0.113
3,AGAACGGC,-0.037
4,CCATGAAC,-0.0453
5,TATGGACA,-0.00254
6,ACTCAATC,0.102
7,TAGTTAGA,0.0557
8,AGTTGCAC,-0.0926
9,ATGTTAGC,-0.184
10,AGTCGTGC,-0.133
11,AGGTCCCC,-0.176
12,CAGGTGCG,0.077
13,CTATCCGA,0.107
14,CAGACTGG,-0.158
15,CCACATCC,-0.0536
16,TCCTATAA,0.0336
17,CAATAATG,0.0505
18,TGAAGAAA,0.109
19,GAAGACAA,-0.0264
20,GCCTAGAA,0.00109
21,GATTCAGC,-0.0879
22,CCAAATCC,-0.177
23,ACATTTCC,0.0947
24,GCGAGGGA,0.0452
25,ACATGTTG,0.148

row,Sequence,PBM E-score
1,CACTTCGA,0.0384
2,CTACAGGC,-0.165
3,ATAGCGTC,0.0538
4,GCCACGCC,-0.186
5,GTCGAAAC,0.128
6,ATGAACGC,0.0625
7,GGTTGTAC,-0.219
8,CAAAAATA,0.346
9,GAATACTA,0.236
10,ATAGGTTA,0.0715
11,GACGTTCC,-0.231
12,AGTAGACT,-0.217
13,AACACCTT,0.0484
14,TAGCCACA,-0.105
15,TCTTCCAA,0.0347
16,GACGAGGC,-0.122
17,CCTAAATC,-0.0187
18,CATAAAAA,0.175
19,GGATTCAA,0.0399
20,CAGCATAA,0.139
21,AAACATCG,0.233
22,AATTCTAA,0.242
23,CTTGTTGA,0.00531
24,ACATTGCT,-0.0537
25,TGGGGAAA,0.098

row,Sequence,PBM E-score
1,CGGTCCTA,-0.0839
2,TACTAACA,0.193
3,CGGCGGCC,-0.0459
4,CATTGTGC,-0.152
5,CAGGGCAG,-0.0739
6,AGTATTCG,0.0217
7,CAAAGTTC,-0.0947
8,CTTATTAA,0.213
9,AATCGGCT,0.189
10,GCCCATCC,-0.165
11,ACATTCTC,0.0558
12,ACCCAGAC,-0.0262
13,ACACCGCG,-0.0298
14,CCTGTGAG,-0.119
15,CCTTATCA,0.0945
16,GAACCGGC,-0.0332
17,GGTACACA,-0.122
18,CACAGATG,-0.205
19,CTAGGTTC,-0.0289
20,CGTGCGGA,-0.0676
21,AATCCGTG,-0.0695
22,CAGGAGAA,0.0114
23,GAAAAAGA,0.241
24,GCAAAAAA,0.258
25,ATTCCGGA,0.11

row,Sequence,PBM E-score
1,GTTTTCTA,0.0606
2,ATAATCCG,-0.0219
3,GCCCTGTA,-0.117
4,AGTACTTC,0.0465
5,ATCTGTGG,-0.106
6,GCAGCAGA,-0.0506
7,GCGTTACA,0.139
8,ATTTCATC,0.202
9,GCGCGGGA,0.0251
10,GCGCCACC,-0.0104
11,AGAACCAG,-0.013
12,GGTTCAAA,0.195
13,ATTAAGTG,0.127
14,CGCACCAG,0.175
15,CGTATCCC,-0.0743
16,CAGGAATC,0.142
17,TATAATGA,0.225
18,AGGCGAAG,-0.178
19,CCGCCCAA,-0.0838
